Experimental data: publication PMC4336329 (PLoS ONE, 2015)
The whole screen tested about 310,000 compounds, of which about 14,000 (4.5%) showed an effect of 50% or more. The effect is printed as a negative number. The list shows a part of the results.

Biological target: human ether-à-go-go-related gene (hERG) potassium channel (human, UniProt Q12809)
Experiment: primary screen, population patch clamp on CHO cells stably expressing hERG
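Further: peak tail current of the secondary pulse compared with the same well before compound.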

human ether-à-go-go-related gene (hERG) potassium channel, sequence (Q12809 whole entry, looked up): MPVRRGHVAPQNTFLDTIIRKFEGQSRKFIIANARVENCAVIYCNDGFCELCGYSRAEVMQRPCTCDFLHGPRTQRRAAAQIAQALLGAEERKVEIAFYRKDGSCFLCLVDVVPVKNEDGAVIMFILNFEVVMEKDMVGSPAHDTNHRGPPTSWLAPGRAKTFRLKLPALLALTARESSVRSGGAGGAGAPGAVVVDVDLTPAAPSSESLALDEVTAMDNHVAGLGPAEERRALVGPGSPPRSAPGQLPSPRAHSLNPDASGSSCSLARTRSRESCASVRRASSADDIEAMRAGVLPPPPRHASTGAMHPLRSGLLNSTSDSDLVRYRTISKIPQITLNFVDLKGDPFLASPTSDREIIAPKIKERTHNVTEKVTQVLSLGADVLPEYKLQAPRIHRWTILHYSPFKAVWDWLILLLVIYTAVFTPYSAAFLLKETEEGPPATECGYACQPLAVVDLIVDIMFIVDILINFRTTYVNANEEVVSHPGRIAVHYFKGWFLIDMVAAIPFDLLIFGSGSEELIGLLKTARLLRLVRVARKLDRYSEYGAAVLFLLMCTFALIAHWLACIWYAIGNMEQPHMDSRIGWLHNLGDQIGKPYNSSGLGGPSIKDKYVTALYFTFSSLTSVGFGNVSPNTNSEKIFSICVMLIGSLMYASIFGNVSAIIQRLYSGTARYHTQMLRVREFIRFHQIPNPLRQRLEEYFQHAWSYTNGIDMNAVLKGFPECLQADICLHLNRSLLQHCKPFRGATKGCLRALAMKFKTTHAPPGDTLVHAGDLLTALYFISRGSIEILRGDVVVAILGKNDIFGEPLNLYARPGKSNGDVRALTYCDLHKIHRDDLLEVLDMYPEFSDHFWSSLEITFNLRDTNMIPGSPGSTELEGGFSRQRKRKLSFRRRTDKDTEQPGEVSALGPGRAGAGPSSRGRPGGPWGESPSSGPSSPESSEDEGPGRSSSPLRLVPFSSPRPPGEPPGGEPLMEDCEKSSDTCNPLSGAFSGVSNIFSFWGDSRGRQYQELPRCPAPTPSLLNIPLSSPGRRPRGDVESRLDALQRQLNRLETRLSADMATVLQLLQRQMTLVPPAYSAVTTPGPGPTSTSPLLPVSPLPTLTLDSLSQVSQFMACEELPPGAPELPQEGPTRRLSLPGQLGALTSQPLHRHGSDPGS

SMILES | hERG current change (%, negative = inhibition) at 10uM [%]
Cc1ccc(NCc2ccc(C)s2)cc1 | 16.7
CN(Cc1ccc(OC(F)F)cc1)C(=O)c1ccccc1Sc1ccccc1C#N | -60.5
O=C(Cn1ccc2ccccc2c1=O)NCC(=O)N1CCCCC1 | 28.3
C=CCn1c(SCC(=O)Nc2cccnc2Cl)nnc1-c1ccc(Cl)cc1 | -45.4
COc1ccc(C(=O)NC2CC(C)(C)NC(C)(C)C2)cc1OC | 21.4
CCCCNC(=O)c1c(CSc2ccccc2)noc1C(=O)NCc1ccccc1 | 28.1
Cc1cccc(NC(=O)CN2C(=O)c3ccccc3C2=O)c1C | 0.742
CC(C)NC(=O)Cn1nc(C(F)(F)F)c2c1CCC2 | 7.42
CC1=C(C(=O)O)N2C(=O)C(NC(=O)Cc3ccccc3)C2SC1 (centres unmarked) | 8.13
Cc1cc2nn(-c3ccc(F)cc3)nc2cc1N | 17.4
CCCc1ccc(OCc2ccc(C(=O)NN)o2)c(OC)c1 | 4.83
CC(O)CNC(=S)Nc1ccccc1 (centres unmarked) | 3.24
CCOC(=O)C1CCN(C(=O)CCNS(=O)(=O)c2cc(Br)cnc2N)CC1 | -9.33
CC(Sc1ccccc1)C(=O)NCC1COc2ccccc2O1 (centres unmarked) | -13.8
COCC(C)NC(=O)CSc1nc2nn(-c3ccccc3)c(=O)c-2c2n1CCCCC2 (centres unmarked) | 8.5
CC(=O)Nc1ccc(S(=O)(=O)Nc2nccs2)cc1 | 11
C[C@@H](CC#N)CN1CC[C@H](C(C)(C)C)CCC1=O | 0.574
COCCN1Cc2cccc(C(=O)NC3CCCCCC3)c2C1=O | -19.6
O=C1NC(NS(=O)(=O)c2ccc(Cl)cc2)(C(F)(F)F)C(=O)N1Cc1cccnc1 (centres unmarked) | 10.4

SMILES | hERG current change (%, negative = inhibition) at 10uM [%]
CCN(Cc1ccccc1)C(=O)Cn1c(=O)oc2ccccc21 | 23.1
COc1cccc(CNC(=O)CCC2CCCN(C(=O)c3ccc(F)c(Cl)c3)C2)c1 (centres unmarked) | -16.6
CN(C)/C=N/c1ncc(C(=O)c2ccc(Cl)cc2)s1 | -12.2
CC1(NC(=O)N2CCCCC2)CCS(=O)(=O)C1 (centres unmarked) | 9.71
O=C1CSC(c2cn(-c3ccccc3)nc2-c2cc3ccccc3oc2=O)N1Cc1cccnc1 (centres unmarked) | -41.6
Cc1cccc(C)c1NC(=O)N1C2CCCC1CC(NC(=O)C(C)(C)C)C2 (centres unmarked) | 10.2
Nc1nonc1-n1nnc(C(=O)N/N=C/c2c(F)cccc2Cl)c1-c1ccc2c(c1)OCO2 | 9.15
Cc1ccsc1/C=N/NC(=O)C(=O)NCC(C)C | 6.07
Cc1c(NC(=O)CSc2nnc(-c3cccnc3)n2N)c(=O)n(-c2ccccc2)n1C | 9.79
COC(=O)\C(C(C)=O)=C(/C=C/C=C/N(C)C)N(C)C | 4.11
Cc1nc2ccc(S(=O)(=O)NC(C(=O)NCc3ccco3)C(C)C)cc2s1 (centres unmarked) | 0.871
Cc1ccc2nc(NCc3ccc(F)cc3)c3nncn3c2c1 | 2.23
COc1ccccc1NC(=O)CNC(=O)c1ccc([N+](=O)[O-])cc1 | -22
Cc1nn(CCCC(=O)Nc2cc(Oc3ccccc3)cc([N+](=O)[O-])c2)c(C)c1[N+](=O)[O-] | 7.24
Cc1ccc(S(=O)(=O)N[C@@H](CC(C)C)C(=O)NCc2ccco2)cc1 | -11.9
ON=C1/C(=N\O)CC2(C/C1=N/O)OCCO2 | -7.01
CC(C)c1ccc2[nH]c(O)c(N=NC(=O)c3cccc(S(=O)(=O)Nc4ccc(Cl)cc4)c3)c2c1 | 17.9
CC(=O)C(/C=N/c1cc(-c2ccc(C)cc2)nn1-c1ccccc1)=C(\C)O | -3.1
N=C1/C(=C\c2ccc(OC(=O)c3ccccc3Cl)cc2)C(=O)N=C2SC(N3CCOCC3)=NN12 | 6.71

SMILES | hERG current change (%, negative = inhibition) at 10uM [%]
COc1ccc(CNC(=O)C(C)N2CCN(c3ccc(C(C)=O)cc3)CC2)cc1 (centres unmarked) | -55.1
Fc1cccc(/C=C2\CCCC3=C2NC(=S)NC3c2cccc(F)c2)c1 (centres unmarked) | 18.7
CCCN(CC(=O)Nc1ccccc1C)C(=O)c1ccc(N2CCCCCC2)c([N+](=O)[O-])c1 | 1.97
COCCOC(=O)c1c(NC(=O)COC(=O)c2ccc(C)o2)sc(C(N)=O)c1C | -10.9
COC(=O)c1cc(S(=O)(=O)NCCc2cccc(C)c2)cn1C | -0.156
O=C(Nc1ccc(F)cc1)Nc1ccc(N2CCCC2)c(S(=O)(=O)Nc2ccccc2Cl)c1 | 17
O=C(Nc1nnc(CCc2ccccc2)s1)c1cccc(F)c1 | 18.7
Cc1csc(=O)n1CC(=O)OCC(=O)Nc1ccc(C(N)=O)cc1 | 11.2
Cc1ccc(NC(=S)Nc2ccc3nc(-c4ccccn4)c(-c4ccccn4)nc3c2)cc1C | -5.29
COC(=O)c1ccccc1NC(=O)c1ccc[nH+]c1.[Cl-] | 6.72
CCc1cccc(NC(=O)CCNS(=O)(=O)c2cccc3nonc23)c1 | 16.1
CCCCC(=O)Nc1cc(Cl)ccc1C(=O)O | 27.6
Cc1ccc2cc(CN(C)C(=O)C3CCCO3)c(=O)[nH]c2c1 (centres unmarked) | 5.86
COc1ccccc1-n1c(-c2ccccc2F)nc2ccccc2c1=O | 7.45
O=C(CSCc1ccccc1)Nc1ccc(S(=O)(=O)N2CCOCC2)cc1 | -17.7
COC(=O)c1c(-c2cccc(OC)c2)csc1N | 4.73
CC(C)(O)C#Cc1ncc(C(F)(F)F)cc1Cl | 17.7
NC(=O)Cn1c(=O)n(CCC(=O)Nc2ccc(F)cc2)c(=O)c2sccc21 | 22.1
